This note sets out measurements from paper PMC6212790.

Some of the results follow. At the low end of the ranking, values are background and their order means little.

The target in the assay is T1, GST-Rok-C97-191 (UniProt O34857).
T1 sequence: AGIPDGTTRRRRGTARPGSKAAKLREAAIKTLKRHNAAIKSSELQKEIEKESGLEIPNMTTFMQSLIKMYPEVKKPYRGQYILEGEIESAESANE
Kind of assay: protein binding microarray.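 Note: rank score from −0.5 (least bound) to 0.5 (best bound).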 As to conditions: Rok is a gene silencer of Bacillus subtilis; high values mean tight binding; most listed sequences are background and not binding sites; double strand, one strand shown.
Take CCAGTCGC: the binding signal was -0.105 E-score.

With GGGTCCGA, the binding signal is -0.227 E-score. With ATGGGACG the figure was -0.108 E-score. With ACATAGAT the figure was 0.33 E-score; with AGACTCAC, -0.132 E-score; with ACGTCCAA, -0.0558 E-score. The same measure for AAGGTGCT: 0.009 E-score; for ATGAAAAT: 0.167 E-score; for TGGGAACA: 0.0153 E-score.

Take ATTGTTAG: the binding signal is 0.193 E-score.

CAATCCGA gave a binding signal of 0.0261 E-score. With AATTGTGG the figure was 0.088 E-score; with CCGCAAGA, -0.109 E-score; with ATCATCAG, -0.142 E-score.

With CTGCACGC, the binding signal was -0.0707 E-score. With AATCTAAC the figure was 0.199 E-score; with CACCTCGG, -0.233 E-score; with AAAATTTA, 0.282 E-score. The same measure for AAACCTAC: 0.227 E-score; for ATCGTTTG: -0.0549 E-score.

Regarding CATAAGCC, the binding signal was -0.142 E-score.

As for CTGTCCGA, the binding signal was found to be 0.0343 E-score.

With AAGCTGAT, the binding signal is -0.0275 E-score. For the sequence TAGGTGGA, the binding signal was -0.0951 E-score. GTAGCCCA: the binding signal is -0.291 E-score.

Take CCAGACGA: the binding signal is -0.0847 E-score. With ATGCTCTC the figure was -0.0084 E-score; with CACGAGTG, -0.0068 E-score. With ACTAAGGC the figure was -0.0444 E-score; with TGACCTCA, -0.014 E-score; with AAGGGCAT, 0.0288 E-score. The same measure for CGCGGGTC: -0.341 E-score; for TGGGGACA: -0.181 E-score; for CAGGGTCG: -0.239 E-score. For ACGTGGAC, the binding signal is -0.17 E-score. CGTGTTAA: the binding signal came to 0.0907 E-score.

Regarding CGATCCAG, the binding signal was -0.0429 E-score. With ATCCGAGC the figure was -0.15 E-score; with CAAGGTGC, -0.283 E-score; with ACCCCCAG, -0.214 E-score. CGATTCCG gave a binding signal of 0.0559 E-score.

Take TAGATCCA: the binding signal is 0.112 E-score.

AGTTTGTG returned a binding signal of 0.23 E-score. With CATAAAAC the figure was 0.214 E-score; with AGGTGCGA, -0.165 E-score; with CATTACAA, 0.0699 E-score. With GACTTAGA the figure was -0.0858 E-score. The same measure for GCCTAGAA: 0.124 E-score. AAGGGGGA: the binding signal is -0.218 E-score. The same measure for ATTTCGAG: 0.0977 E-score; for CATAAAAA: 0.178 E-score.

For the sequence CCAACGAA, the binding signal is -0.0756 E-score. For the sequence AAGTCCAG, the binding signal worked out at 0.0873 E-score.

As to AGGCGCTC, the binding signal is -0.35 E-score.

On to ATATTTAG, for which the binding signal is 0.201 E-score. Consider AACGGGAT, for which the binding signal is 0.106 E-score. As to GACCTTGA, the binding signal is -0.112 E-score. With AGAGTTAG the figure was 0.137 E-score. With TATGAGGA the figure was 0.0253 E-score; with CGTGTGGA, -0.0534 E-score.

The sequence AATGAAGT yielded a binding signal of 0.106 E-score. With CGACTCTC the figure was -0.174 E-score; with ATTTCGCC, -0.0121 E-score. The same measure for GATTCGCC: -0.261 E-score; for CTAAACAC: 0.00902 E-score; for ACAACGGG: -0.136 E-score. With CACAATGC the figure was -0.0369 E-score. The sequence TACAGCCA showed a binding signal of -0.2 E-score.

As to ATTATAGC, the binding signal came to 0.189 E-score. The same measure for GTCCAAGA: -0.0166 E-score; for CGACATTA: 0.0731 E-score; for AAAGTCCA: -0.0237 E-score. With GTGTCAAC the figure was -0.214 E-score.

As for AGGGGACG, the binding signal is -0.274 E-score. CCTCATAG gave a binding signal of -0.0799 E-score. With ATGGGTCA the figure was -0.0833 E-score. The same measure for AGTAGGGA: 0.0797 E-score; for CAAGCAGA: 0.0345 E-score. With CTCACAAC the figure was 0.143 E-score; with CCTCGCAG, -0.24 E-score; with AATAGCTC, 0.179 E-score.

CAGATAGC yielded a binding signal of 0.0948 E-score. With AATCGTTG, the binding signal is -0.0522 E-score. With CCTGAAGG the figure was -0.247 E-score. With CCGTCGCC the figure was -0.323 E-score. The same measure for GGAACAGA: -0.167 E-score. Sequence CCACTATC had a binding signal of 0.0612 E-score. The same measure for CCGTCCAG: -0.2 E-score; for TGGAATAA: 0.171 E-score; for CTTAGTGA: -0.0497 E-score.

CAAAGCGG came in with a binding signal of -0.0606 E-score.

As to ACTTAACT, the binding signal came to 0.219 E-score. The same measure for CCCTCCCG: -0.221 E-score; for CAGGACAA: -0.0587 E-score. With AAGCCATA, the binding signal came to 0.0114 E-score. The same measure for ACGGCATA: -0.0674 E-score; for GTTAATAA: 0.309 E-score. The same measure for ACTTACGC: 0.00924 E-score. In the case of CTGTATGC, the binding signal was -0.0958 E-score.

AGTGAGTC registered a binding signal of -0.043 E-score. The same measure for AACTACCG: 0.41 E-score. With CTCTTATC the figure was 0.0165 E-score; with ACCAAACC, 0.0692 E-score; with AGACCTCT, -0.134 E-score. With ATAGGAAA the figure was 0.17 E-score; with AGCCGAAA, 0.191 E-score; with CGGTTGTA, 0.292 E-score.

CACTTCGA returned a binding signal of -0.12 E-score.

In the case of CTAACGGA, the binding signal was -0.00053 E-score. With CTTCAGCA the figure was -0.0401 E-score; with ACGTCTTG, -0.156 E-score; with ACCCGTAG, -0.0518 E-score. With AATATGCT the figure was -0.0724 E-score; with CTCATTTA, -0.14 E-score. With CAACGTTA the figure was 0.0959 E-score; with CGCGAAAA, 0.199 E-score; with ATGAGGGA, -0.156 E-score. On to CTATTAGA, for which the binding signal is 0.298 E-score.

Take CCGCGGCA: the binding signal was -0.0832 E-score. With CGGTGTTC the figure was -0.0879 E-score; with CCGCAGCG, -0.147 E-score. With ATAAGTAT the figure was 0.215 E-score; with CTATTGAC, 0.0924 E-score.

Take AGACCTCC: the binding signal was -0.243 E-score. The same measure for CCGGTGTA: -0.119 E-score; for CAGCTCCG: -0.172 E-score. The same measure for ACTACGCG: 0.167 E-score; for CCAGAGGG: -0.325 E-score; for CGGATTAC: 0.11 E-score. With CGACCTTC the figure was -0.0989 E-score; with CCGCCAGG, -0.365 E-score. With AGGGCATG, the binding signal is -0.18 E-score. The sequence CCGAGTAG gave a binding signal of 0.0106 E-score.

As for GCAACTAA, the binding signal was 0.232 E-score. In turn, AGCTGGCG returned a binding signal of -0.0516 E-score.

For the sequence CTCTGGAA, the binding signal is 0.115 E-score. With ACAATGTC the figure was 0.0192 E-score. With ATGAATTC the figure was 0.0443 E-score; with AGAATAAC, 0.125 E-score; with GGACTACC, -0.0701 E-score. The same measure for ATGCTAGA: 0.249 E-score. With CATGTTAA, the binding signal was 0.188 E-score. Consider CGTATCCC, for which the binding signal turned out to be 0.0279 E-score. The same measure for GAGTAGGA: 0.0788 E-score; for CAGAGTAA: -0.0121 E-score. With CAAAACTA the figure was 0.401 E-score. In turn, CCGAATAG yielded a binding signal of -0.0787 E-score.

For GCATTTGA, the binding signal was -0.0443 E-score. Regarding GCGTCTCA, the binding signal is -0.174 E-score. The same measure for GAATCAGA: 0.132 E-score. With GCGTAACA the figure was 0.0424 E-score; with ACTTTGTA, 0.17 E-score; with AAGATCAT, 0.0387 E-score. The same measure for CTTCTCAC: -0.0581 E-score. For CCAATAAC, the binding signal was -0.108 E-score. Turning to CCGATCCA, the binding signal was -0.0563 E-score. The same measure for AAAATTGA: 0.179 E-score; for CACGTTGC: -0.135 E-score.

Turning to CTGCTATC, the binding signal is 0.0179 E-score.

Sequence GTCATAAA displayed a binding signal of 0.0659 E-score. The same measure for AATTGCCC: 0.0411 E-score; for AACCAGTA: 0.278 E-score; for ACACTGTA: 0.115 E-score.

Consider CTCTCTCA, for which the binding signal was -0.0291 E-score.

For CCGTAAGA, the binding signal was -0.0585 E-score.

AGCGTACG had a binding signal of 0.159 E-score. Regarding GTACCAAC, the binding signal stood at 0.0505 E-score.

For ATCGTAAT, the binding signal came out at 0.112 E-score. In turn, AGGCACGA registered a binding signal of -0.132 E-score. The same measure for AATGCAAC: 0.169 E-score; for AGCGACAT: 0.0701 E-score. With AAGTATTG the figure was 0.0627 E-score; with AAATTGCG, 0.0795 E-score.

CGTCATAC registered a binding signal of 0.0184 E-score. Sequence GTATCGGA showed a binding signal of 0.00862 E-score. The same measure for TCTGTGCA: -0.041 E-score; for AATTATCC: 0.176 E-score; for CGTTCCAA: 0.0413 E-score. TCCAAACA had a binding signal of -0.00365 E-score. The same measure for AATACTAT: 0.35 E-score; for ATCGCATG: -0.217 E-score. The same measure for GTATAGAA: 0.278 E-score; for CCGACCAC: -0.27 E-score; for CTCCCTCA: -0.13 E-score. With CGGAATAA the figure was 0.132 E-score; with CTTGGCCC, -0.244 E-score. In turn, AAAAAGGT gave a binding signal of -0.0081 E-score. The same measure for TCTACTCA: 0.188 E-score; for AGGTTCAC: -0.111 E-score. Consider AGTGTGCC, for which the binding signal was -0.185 E-score. With GGCTCCAA the figure was -0.137 E-score; with ACGTTGCG, -0.251 E-score. Take AAAGCCGG: the binding signal was -0.0749 E-score.

On to GCCCCTCC, for which the binding signal was -0.316 E-score. With CAGTGAAG the figure was -0.304 E-score; with GTTAGAAC, 0.125 E-score. CCCGCTAA: the binding signal is -0.106 E-score. With CAAACGGA the figure was 0.00396 E-score; with CCACGCTA, 0.088 E-score. The same measure for CGTTTCTA: 0.369 E-score; for GGGCGTAC: -0.206 E-score; for TGACATAA: -0.123 E-score. With CGGGAGTA the figure was 0.0612 E-score; with AATGTGAC, -0.0011 E-score. On to CTCATTAA, for which the binding signal is -0.112 E-score. With GAGGTCCA the figure was -0.00465 E-score; with ATCTGCAG, 0.0153 E-score.

ACGAAGAC showed a binding signal of -0.0434 E-score. On to ATGCTTAC, for which the binding signal is -0.0235 E-score. With ACGCGACT the figure was -0.0126 E-score; with CACTTTAG, -0.00159 E-score; with ATCGGACG, -0.0814 E-score. The same measure for CTTTATGC: -0.0868 E-score. The same measure for TGGATAAA: 0.143 E-score; for CTGGGGTC: -0.232 E-score; for GAAAGGTA: 0.197 E-score. Sequence CTATATCC had a binding signal of 0.17 E-score.

For ATAATCTG, the binding signal was -0.0151 E-score. The same measure for CTCTCCTA: 0.00866 E-score.
